# Measurements: the supplement of paper PMC10037445
# The full ranking holds about 2,900 compounds; the median of “NF-kB SEAP reporter activity, fold change vs agonist alone” is about 0.99, and the highest 2% start at about 2.6. Some of the results follow.
# How the values were obtained:
# [1] = system: RAW-Dual; test: NF-kB SEAP reporter activity, fold change vs agonist alone; cytotoxicity flag (confluency mask): not cytotoxic; higher = enhanced NF-kB activity
# In short: (§1)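 RAW-Dual macrophages (50,000 cells/well in DMEM, 384-well plates) received 50 nL of library stock by pin tool, then a PRR agonist 1 h later, and were kept at 37 °C, 5% CO2. After 20 hours, supernatant was read for IRF by QuantiLuc luminescence and for NF-κB by QuantiBlue absorbance at 620 nm. Reporter activity is fold change over agonist-alone wells. Cytotoxic wells had IncuCyte confluency below 70% of agonist controls in both mask sets.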
# [2] = system: RAW-Dual; test: NF-kB SEAP reporter activity, fold change vs agonist alone; higher = enhanced NF-kB activity
# In short: as §1
# [3] = system: RAW-Dual; test: NF-kB SEAP reporter activity, fold change vs agonist alone; cytotoxicity flag (confluency mask): cytotoxic (confluency <70% of control); higher = enhanced NF-kB activity
# In short: as §1
# [4] = agonist: ODN 1826 (TLR9) 0.5 ug/mL
# [5] = agonist: Pam2CSK4 (TLR2/6) 0.1 ug/mL
# [6] = agonist: Pam3CSK4 (TLR2/1) 0.1 ug/mL
# [7] = library stock concentration (final ~1000-fold dilution): 10 mM, cytotoxicity flag (confluency mask): not cytotoxic, agonist: Imiquimod (TLR7) […]
# [8] = library stock concentration (final ~1000-fold dilution): 10 mM, cytotoxicity flag (confluency mask): not cytotoxic, agonist: MPLA (TLR4) […]
# [9] = library stock concentration (final ~1000-fold dilution): 10 mM, cytotoxicity flag (confluency mask): cytotoxic (confluency <70% of control), agonist: Imiquimod (TLR7) […]
# [10] = library stock concentration (final ~1000-fold dilution): 10 mM, cytotoxicity flag (confluency mask): cytotoxic (confluency <70% of control), agonist: MPLA (TLR4) […]
smiles,measurement,setting,value
C#Cc1cccc(Nc2ncnc3cc(OCCOC)c(OCCOC)cc23)c1 (library stock concentration (final ~1000-fold dilution): 10 mM),NF-kB SEAP reporter activity,[1]; agonist: LPS (TLR4) 0.1 ug/mL,4.68
same,NF-kB SEAP reporter activity,[1]; [4],1.33
same,NF-kB SEAP reporter activity,[1]; [5],0.887
same,NF-kB SEAP reporter activity,[1]; [6],0.935
CC(C)Cc1ccc([C@@H](C)C(=O)O)cc1 (library stock concentration (final ~1000-fold dilution): 10 mM),NF-kB SEAP reporter activity,[1]; agonist: LPS (TLR4) 0.1 ug/mL,1.16
same,NF-kB SEAP reporter activity,[1]; [4],1.17
same,NF-kB SEAP reporter activity,[1]; [5],1.09
same,NF-kB SEAP reporter activity,[1]; [6],1.1
CC(C)Cc1ccc([C@@H](C)C(=O)O)cc1,NF-kB SEAP reporter activity,[2]; [7],0.906
same,NF-kB SEAP reporter activity,[2]; [8],1
O=C1C[C@@H](c2ccc(O)c(O)c2)Oc2cc(O)cc(O)c21,NF-kB SEAP reporter activity,[2]; [7],1.12
same,NF-kB SEAP reporter activity,[2]; [8],1.5
O=C1C[C@@H](c2ccc(O)c(O)c2)Oc2cc(O)cc(O)c21 (library stock concentration (final ~1000-fold dilution): 10 mM),NF-kB SEAP reporter activity,[1]; agonist: LPS (TLR4) 0.1 ug/mL,1.16
same,NF-kB SEAP reporter activity,[1]; [4],0.787
same,NF-kB SEAP reporter activity,[1]; [5],0.563
same,NF-kB SEAP reporter activity,[1]; [6],0.744
CS(=O)(=O)O.O=C(NC1CCN(CCCCC2(C(=O)NCC(F)(F)F)c3ccccc3-c3ccccc32)CC1)c1ccccc1-c1ccc(C(F)(F)F)cc1 (library stock concentration (final ~1000-fold dilution): 10 mM),NF-kB SEAP reporter activity,[3]; agonist: LPS (TLR4) 0.1 ug/mL,0.339
same,NF-kB SEAP reporter activity,[3]; [4],0.219
same,NF-kB SEAP reporter activity,[3]; [5],0.378
same,NF-kB SEAP reporter activity,[3]; [6],0.162
CS(=O)(=O)O.O=C(NC1CCN(CCCCC2(C(=O)NCC(F)(F)F)c3ccccc3-c3ccccc32)CC1)c1ccccc1-c1ccc(C(F)(F)F)cc1,NF-kB SEAP reporter activity,[2]; [9],0.907
same,NF-kB SEAP reporter activity,[2]; [10],0.931
O=C(/C=C/c1cncc(F)c1)c1c(-c2ccccc2)c2cc(Cl)ccc2[nH]c1=O,NF-kB SEAP reporter activity,[2]; [9],0.157
same,NF-kB SEAP reporter activity,[2]; [10],0.259
O=C(/C=C/c1cncc(F)c1)c1c(-c2ccccc2)c2cc(Cl)ccc2[nH]c1=O (library stock concentration (final ~1000-fold dilution): 10 mM),NF-kB SEAP reporter activity,[3]; agonist: LPS (TLR4) 0.1 ug/mL,0.257
same,NF-kB SEAP reporter activity,[3]; [4],0.212
same,NF-kB SEAP reporter activity,[3]; [5],0.0981
same,NF-kB SEAP reporter activity,[3]; [6],0.253
CC1COCCN1c1cc(-c2ccnn2C)c2ccnc(-c3ccn[nH]3)c2n1.Cl (stereo not given),NF-kB SEAP reporter activity,[2]; [7],1.48
same,NF-kB SEAP reporter activity,[2]; [8],2.05
CC1COCCN1c1cc(-c2ccnn2C)c2ccnc(-c3ccn[nH]3)c2n1.Cl (stereo not given) (library stock concentration (final ~1000-fold dilution): 10 mM),NF-kB SEAP reporter activity,[1]; agonist: LPS (TLR4) 0.1 ug/mL,1.89
same,NF-kB SEAP reporter activity,[1]; [4],0.957
same,NF-kB SEAP reporter activity,[1]; [5],1.09
same,NF-kB SEAP reporter activity,[1]; [6],1.19
Cc1ccc(-c2nn(C(C)(C)C)c3ncnc(N)c23)cc1,NF-kB SEAP reporter activity,[2]; [7],1.09
same,NF-kB SEAP reporter activity,[2]; [8],1.15
Cc1ccc(-c2nn(C(C)(C)C)c3ncnc(N)c23)cc1 (library stock concentration (final ~1000-fold dilution): 10 mM),NF-kB SEAP reporter activity,[1]; agonist: LPS (TLR4) 0.1 ug/mL,1.17
same,NF-kB SEAP reporter activity,[1]; [4],1.21
same,NF-kB SEAP reporter activity,[1]; [5],0.503
same,NF-kB SEAP reporter activity,[1]; [6],0.351
NCCCC(=O)O (library stock concentration (final ~1000-fold dilution): 10 mM water),NF-kB SEAP reporter activity,[1]; agonist: LPS (TLR4) 0.1 ug/mL,1.03
same,NF-kB SEAP reporter activity,[1]; [4],1.1
same,NF-kB SEAP reporter activity,[1]; [5],1.08
same,NF-kB SEAP reporter activity,[1]; [6],1.15
NCCCC(=O)O,NF-kB SEAP reporter activity,"[2]; library stock concentration (final ~1000-fold dilution): 10 mM water, cytotoxicity flag (confluency mask): not cytotoxic, agonist: MPLA (TLR4) […]",1
CC(C)CC(NP(=O)(O)OC1OC(C)C(O)C(O)C1O)C(=O)NC(Cc1c[nH]c2ccccc12)C(=O)O (stereo not given) (library stock concentration (final ~1000-fold dilution): 10 mM),NF-kB SEAP reporter activity,[1]; agonist: LPS (TLR4) 0.1 ug/mL,1.04
same,NF-kB SEAP reporter activity,[1]; [4],0.986
same,NF-kB SEAP reporter activity,[1]; [5],1.05
same,NF-kB SEAP reporter activity,[1]; [6],1.41
CC(C)CC(NP(=O)(O)OC1OC(C)C(O)C(O)C1O)C(=O)NC(Cc1c[nH]c2ccccc12)C(=O)O (stereo not given),NF-kB SEAP reporter activity,[2]; [7],0.973
same,NF-kB SEAP reporter activity,[2]; [8],1.03
C=CC1CC1(NC(=O)C1CC(Oc2ncc(OC)c3ccc(Cl)cc23)CN1C(=O)C(NC(=O)OC(C)(C)C)C(C)(C)C)C(=O)NS(=O)(=O)C1CC1 (stereo not given),NF-kB SEAP reporter activity,[2]; [10],1.06
C=CC1CC1(NC(=O)C1CC(Oc2ncc(OC)c3ccc(Cl)cc23)CN1C(=O)C(NC(=O)OC(C)(C)C)C(C)(C)C)C(=O)NS(=O)(=O)C1CC1 (stereo not given) (library stock concentration (final ~1000-fold dilution): 10 mM),NF-kB SEAP reporter activity,[3]; agonist: LPS (TLR4) 0.1 ug/mL,1.1
same,NF-kB SEAP reporter activity,[3]; [4],0.915
same,NF-kB SEAP reporter activity,[3]; [5],0.518
same,NF-kB SEAP reporter activity,[3]; [6],0.508
CNC(=NC#N)NCCSCc1nc[nH]c1C (library stock concentration (final ~1000-fold dilution): 10 mM),NF-kB SEAP reporter activity,[1]; agonist: LPS (TLR4) 0.1 ug/mL,1.08
same,NF-kB SEAP reporter activity,[1]; [4],1.05
same,NF-kB SEAP reporter activity,[1]; [5],1.02
same,NF-kB SEAP reporter activity,[1]; [6],1.16
CNC(=NC#N)NCCSCc1nc[nH]c1C,NF-kB SEAP reporter activity,[2]; [7],0.92
same,NF-kB SEAP reporter activity,[2]; [8],0.882
CCC(Nc1ncnc2[nH]cnc12)c1oc2ccccc2c(=O)c1-c1cccc(F)c1 (stereo not given),NF-kB SEAP reporter activity,[2]; [7],0.582
same,NF-kB SEAP reporter activity,[2]; [8],0.924
CCC(Nc1ncnc2[nH]cnc12)c1oc2ccccc2c(=O)c1-c1cccc(F)c1 (stereo not given) (library stock concentration (final ~1000-fold dilution): 10 mM),NF-kB SEAP reporter activity,[1]; agonist: LPS (TLR4) 0.1 ug/mL,0.907
same,NF-kB SEAP reporter activity,[1]; [4],0.718
same,NF-kB SEAP reporter activity,[1]; [5],0.443
same,NF-kB SEAP reporter activity,[1]; [6],0.61
O=C(O)c1ccc(/C=C2/SC(=S)N(Cc3cccc(C(F)(F)F)c3)C2=O)cc1 (library stock concentration (final ~1000-fold dilution): 10 mM),NF-kB SEAP reporter activity,[1]; agonist: LPS (TLR4) 0.1 ug/mL,0.619
same,NF-kB SEAP reporter activity,[1]; [4],0.737
same,NF-kB SEAP reporter activity,[1]; [5],0.832
same,NF-kB SEAP reporter activity,[1]; [6],0.5
O=C(O)c1ccc(/C=C2/SC(=S)N(Cc3cccc(C(F)(F)F)c3)C2=O)cc1,NF-kB SEAP reporter activity,[2]; [7],0.954
same,NF-kB SEAP reporter activity,[2]; [8],0.727
CCN(CC)CCNc1ccc(C)c2sc3ccccc3c(=O)c12 (library stock concentration (final ~1000-fold dilution): 10 mM),NF-kB SEAP reporter activity,[3]; agonist: LPS (TLR4) 0.1 ug/mL,1.08
same,NF-kB SEAP reporter activity,[3]; [4],0.163
same,NF-kB SEAP reporter activity,[3]; [5],0.65
same,NF-kB SEAP reporter activity,[3]; [6],0.742
CCN(CC)CCNc1ccc(C)c2sc3ccccc3c(=O)c12,NF-kB SEAP reporter activity,[2]; [9],2.42
same,NF-kB SEAP reporter activity,[2]; [10],2.02
